According to PMC4336329 (PLoS ONE, 2015):
About 14,000 (4.5%) of roughly 310,000 compounds showed an effect of 50% or more. The effect is printed as a negative number. The list shows a part of the results.

target: human ether-à-go-go-related gene (hERG) potassium channel (human, UniProt Q12809); assay: primary screen, population patch clamp on CHO cells stably expressing hERG
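Further: peak tail current of the secondary pulse compared with the same well before compound.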

Sequence of human ether-à-go-go-related gene (hERG) potassium channel (Q12809 whole entry, looked up): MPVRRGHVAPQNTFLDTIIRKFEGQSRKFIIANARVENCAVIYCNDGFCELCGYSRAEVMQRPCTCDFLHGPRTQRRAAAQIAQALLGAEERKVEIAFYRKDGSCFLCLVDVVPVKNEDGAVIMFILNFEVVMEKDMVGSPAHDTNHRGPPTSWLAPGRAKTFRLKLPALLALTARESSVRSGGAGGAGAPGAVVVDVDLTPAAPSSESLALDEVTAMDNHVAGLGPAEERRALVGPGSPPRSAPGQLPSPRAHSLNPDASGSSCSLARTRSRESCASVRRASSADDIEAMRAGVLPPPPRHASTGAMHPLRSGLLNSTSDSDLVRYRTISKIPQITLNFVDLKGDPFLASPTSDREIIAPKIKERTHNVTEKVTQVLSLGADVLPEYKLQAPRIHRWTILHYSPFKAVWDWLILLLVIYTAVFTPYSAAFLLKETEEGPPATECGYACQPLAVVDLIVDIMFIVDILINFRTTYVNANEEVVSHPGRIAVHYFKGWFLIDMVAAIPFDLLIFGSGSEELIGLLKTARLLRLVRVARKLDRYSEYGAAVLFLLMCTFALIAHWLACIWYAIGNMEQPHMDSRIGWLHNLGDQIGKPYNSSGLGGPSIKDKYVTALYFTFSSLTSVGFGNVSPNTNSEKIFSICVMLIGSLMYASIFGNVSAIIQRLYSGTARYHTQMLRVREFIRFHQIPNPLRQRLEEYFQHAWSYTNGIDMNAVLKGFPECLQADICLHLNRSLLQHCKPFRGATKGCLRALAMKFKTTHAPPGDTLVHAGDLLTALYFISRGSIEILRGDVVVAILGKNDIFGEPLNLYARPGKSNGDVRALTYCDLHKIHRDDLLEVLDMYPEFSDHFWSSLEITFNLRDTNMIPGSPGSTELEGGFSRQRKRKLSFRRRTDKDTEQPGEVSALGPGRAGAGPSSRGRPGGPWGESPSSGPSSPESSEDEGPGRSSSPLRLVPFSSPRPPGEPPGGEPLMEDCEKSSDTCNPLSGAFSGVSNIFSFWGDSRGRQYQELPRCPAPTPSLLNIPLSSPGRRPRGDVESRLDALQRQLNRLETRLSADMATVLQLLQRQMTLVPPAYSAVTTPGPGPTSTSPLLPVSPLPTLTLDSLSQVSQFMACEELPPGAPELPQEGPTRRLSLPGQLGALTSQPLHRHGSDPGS

Compared with CN(C)c1ccc(C(CNS(=O)(=O)c2ccc3ccccc3c2)N2CCOCC2)cc1 (stereo not shown), C=CCn1c(SCC(=O)Nc2ccc(N3CCOCC3)cc2)nc2ccccc2c1=O is higher in “hERG current change (%, negative = inhibition) at 10uM” value: -19.9% for the first, 3.75% for the second.

First: CCOC(=O)C1CCN(C(=O)CCCCn2c(=O)[nH]c3ccccc3c2=O)CC1
Second: CCOC(=O)C1=C(C)N(CCCCCC(=O)O)C(=O)NC1c1ccc([N+](=O)[O-])cc1 (stereo not shown)
The “hERG current change (%, negative = inhibition) at 10uM” value of the first is lower: -17.1% for the first, 16.3% for the second.

First: CSc1nc(NCc2ccco2)c2c3c(sc2n1)CN(C)CC3
Second: Cc1nc2sc(C(c3ccco3)N3CCC(C)CC3)c(O)n2n1 (stereo not shown)
The “hERG current change (%, negative = inhibition) at 10uM” value of the first is lower: -75% for the first, -3.32% for the second.

Going from COC(=O)CN1C(=S)N(C)C(=O)/C1=C/c1cccs1 to O=C(CN1C(=O)NC2(CCCCCC2)C1=O)NCc1cccs1, the “hERG current change (%, negative = inhibition) at 10uM” value rises from 5.21% to 7.72%.

Going from CCOc1ccc(NS(=O)(=O)c2ccc3[nH]c(=O)oc3c2)cc1 to CCOc1ccccc1NS(=O)(=O)c1ccc2c(c1)NC(=O)CCS2, the “hERG current change (%, negative = inhibition) at 10uM” value falls from 1.46% to -46%.

Going from CCC1=C(OC(=O)N(CC)CC)N2C(=O)OC(=NCC3CC3)[C@]2(Cc2ccccc2)[C@H]2C1=CC[C@H]1C(=O)N(c3ccccc3)C(=O)[C@H]12 to Cc1cc(Br)cc2c1NC(=O)C2(c1c(C)n(C)n(-c2ccccc2)c1=O)c1c(C)n(C)n(-c2ccccc2)c1=O, the “hERG current change (%, negative = inhibition) at 10uM” value rises from -1.36% to 21.6%.

Going from COC(=O)[C@H](C)[C@@H]1C[C@@]1(C)[C@@H](NC(=O)OCc1ccccc1)c1ccccc1 to CN(C)C1(CNC(=O)CC(NC(=O)c2ccccc2Cl)c2ccccc2)CCCCC1 (stereo not shown), the “hERG current change (%, negative = inhibition) at 10uM” value falls from -27% to -31.3%.

Going from CCCOc1ccc(CCC(=O)O)cc1 to COc1ccc(Cl)c(NCCC(=O)O)c1, the “hERG current change (%, negative = inhibition) at 10uM” value rises from 10.6% to 15.5%.

First: CCOc1cc(N2CCOCC2)c(OCC)cc1NC(=O)COC(=O)c1cc(C)cc(C)c1
Second: CCOc1cc(CNc2ccc(N3CCCCC3)cc2)cc(Br)c1OCC(=O)NC(C)(C)C
The “hERG current change (%, negative = inhibition) at 10uM” value of the first is lower: -3.29% for the first, 14.5% for the second.

First: O=C(Cn1c(=O)n(-c2ccccc2)c(=O)n1CC(=O)N1CCCCC1)N1CCCCC1
Second: Cl.O=C(CN1CCN(Cc2ccccc2)CC1)N1CCCCCC1
The “hERG current change (%, negative = inhibition) at 10uM” value of the first is higher: 9.19% for the first, 4.77% for the second.

Going from Oc1c(/C=N/Nc2cccc3cccnc23)ccc2ccccc12 to O=C(NC(=S)Nc1cccc2ncccc12)c1cccs1, the “hERG current change (%, negative = inhibition) at 10uM” value falls from 10.7% to -21%.

First: COc1ccc([C@@H](NC(=O)OC(C)(C)C)C(=O)OC(C)(C)C)cc1
Second: COc1ccc2c(c1)cc(C(=O)O)n2C
The “hERG current change (%, negative = inhibition) at 10uM” value of the first is higher: -1.98% for the first, -6.02% for the second.

Compared with O=C(Cc1ccccc1F)Nc1ccccc1N1CCCC1, COc1ccc(NC(=O)Nc2ccccc2F)c(C)c1 is higher in “hERG current change (%, negative = inhibition) at 10uM” value: -6.22% for the first, 15.5% for the second.

First: C=CCNC(=O)c1ccc(N(Cc2ccccc2)S(C)(=O)=O)cc1
Second: Cc1ccc(C(=O)N(NC2=NS(=O)(=O)c3ccccc32)S(=O)(=O)c2ccc(C)cc2)cc1
The “hERG current change (%, negative = inhibition) at 10uM” value of the first is lower: -1.09% for the first, 18.6% for the second.

Going from O=C(Cn1[nH]c(=O)c2ccccc2c1=O)Nc1ccc2c(c1)CCC2 to Cc1ccc(NC(=O)Cn2cccc2)cc1C, the “hERG current change (%, negative = inhibition) at 10uM” value rises from -9.73% to 5.78%.

First: Cc1cccc(CN2CCN(Cc3ccco3)CC2)c1.O=C(O)C(=O)O
Second: CN1CCN(CCOC2c3ccccc3CSc3ccc(Cl)cc32)CC1.O=C(O)/C=C\C(=O)O (stereo not shown)
The “hERG current change (%, negative = inhibition) at 10uM” value of the first is higher: 7.3% for the first, -57.2% for the second.

Compared with CCC(C)N=C1SCC(C)(/C=N/O)S1 (stereo not shown), CCOc1cc(C=O)cc(N=Nc2cccc([N+](=O)[O-])c2)c1O is higher in “hERG current change (%, negative = inhibition) at 10uM” value: -27% for the first, 9.31% for the second.

Going from CN1C(=O)N(C)C2C1N(CN1CCCCC1)C(=O)N2CN1CCCCC1 (stereo not shown) to O=C(c1noc2c1CCCC2)N1CCCCC1, the “hERG current change (%, negative = inhibition) at 10uM” value falls from 13.5% to -0.65%.

First: COCCCNC(=O)CCc1ccc(S(=O)(=O)Nc2ccc(C)cc2)cc1
Second: Cc1noc(NS(=O)(=O)c2ccc(N/C=C/C(=O)c3ccncc3)cc2)c1C
The “hERG current change (%, negative = inhibition) at 10uM” value of the first is higher: -10.1% for the first, -13% for the second.

Compared with CC(C)C(=O)N(c1ccc(F)cc1)C1C=CS(=O)(=O)C1 (stereo not shown), CN(C)c1ccc(C2NCC(CCl)O2)cc1 (stereo not shown) is higher in “hERG current change (%, negative = inhibition) at 10uM” value: 1.36% for the first, 5.99% for the second.

First: NC(=O)c1ccc(NC(=O)c2ccc(CN3CCOCC3)cc2)cc1
Second: O=C(COC(=O)C1CCN(S(=O)(=O)c2ccccc2)CC1)NC(=O)c1ccc(OC(F)F)cc1
The “hERG current change (%, negative = inhibition) at 10uM” value of the first is lower: 1.54% for the first, 5.4% for the second.

First: O=C(NNC(=S)NC1CCCCC1)c1cccs1
Second: O=C(c1cnccn1)N(c1ccccc1)C1(C(=O)NC2CCCC2)CCCCC1
The “hERG current change (%, negative = inhibition) at 10uM” value of the first is higher: 3.35% for the first, -9.09% for the second.

Compared with COc1ccc(CNC(=O)c2cccnc2SC)cc1OC, COc1ccc(CCNC(=O)c2nnc(CS(=O)(=O)c3ccccc3)o2)cc1OC is lower in “hERG current change (%, negative = inhibition) at 10uM” value: 17.6% for the first, -6.44% for the second.

First: O=C(O)CCC(=O)OCC1CCCO1 (stereo not shown)
Second: C#CCNC(=O)C1=C[C@@H](C2CCCCC2)[C@H](CCCO)[C@@H](OCC)O1
The “hERG current change (%, negative = inhibition) at 10uM” value of the first is higher: -0.944% for the first, -5.53% for the second.

Going from CCc1ccc(CN(C)C(=O)CCc2nnc(-c3ccc(-c4ccccc4)cc3)o2)nc1 to Cc1cccc(-n2c(-c3ccc([N+](=O)[O-])cc3)nc3ccccc3c2=O)c1, the “hERG current change (%, negative = inhibition) at 10uM” value rises from -65.1% to 5.1%.

First: COc1ccc(/C=C/C(=O)Nc2ccc3c(c2)OCCO3)cc1OC
Second: COc1ccc(OC)c(/C=N/NC(=O)CSc2nnc(C)n2-c2ccccc2)c1
The “hERG current change (%, negative = inhibition) at 10uM” value of the first is higher: 1.16% for the first, -12.4% for the second.

Compared with CCN(CC)C(CNC(=O)CSc1nnnn1-c1cccc(F)c1)c1ccco1 (stereo not shown), O=C(CSc1ncccn1)NCc1ccccc1 is higher in “hERG current change (%, negative = inhibition) at 10uM” value: -16.4% for the first, 17% for the second.

First: Clc1ccc(-c2nnc(NC3=NCCCCC3)o2)cc1
Second: CC1(C)C(=O)C2(CCCCC2)C(=O)OC1c1ccc(O)cc1 (stereo not shown)
The “hERG current change (%, negative = inhibition) at 10uM” value of the first is higher: 2.79% for the first, 2.38% for the second.

Going from COc1cnc(SCc2c(Cl)cccc2Cl)nc1Cl to COc1cccc(C2N(c3ccc(Cl)c(Cl)c3)C(=O)C3CCCN32)c1OC (stereo not shown), the “hERG current change (%, negative = inhibition) at 10uM” value falls from -1.4% to -14%.

Compared with CCOC(=O)C1=C(C)NC2=C(C(=O)C(C(=O)OC)C(C)C2)C1c1ccc(OC)c(O)c1 (stereo not shown), COc1cc(C2C(C#N)=C(N)N(c3cccnc3)C3=C2C(=O)CC(C)(C)C3)ccc1O (stereo not shown) is lower in “hERG current change (%, negative = inhibition) at 10uM” value: 6.99% for the first, -4.86% for the second.

Going from COc1ccccc1NC(=O)Nc1ccncc1 to O=C(Nc1cccc(NC(=O)C2C3CC4OC(=O)C2C4C3)c1)c1ccccc1 (stereo not shown), the “hERG current change (%, negative = inhibition) at 10uM” value falls from 30.9% to 14.9%.

First: Cc1cc(C)c(S(=O)(=O)NCCc2ccncc2)c(C)c1
Second: CCOc1ccc(S(=O)(=O)N2CCC(C(=O)NCc3ccncc3)CC2)cc1Cl
The “hERG current change (%, negative = inhibition) at 10uM” value of the first is higher: 5.85% for the first, -28.3% for the second.

Compared with CC(C)c1csc(CN2CCCC(CCC(=O)NCc3ccccc3F)C2)n1 (stereo not shown), CCOC(=O)c1nc(NCCc2ccccc2)sc1C is higher in “hERG current change (%, negative = inhibition) at 10uM” value: -34.3% for the first, 5.5% for the second.

First: C/C(=N\NC(=O)c1c(Cl)c(C)nn1C)c1cccc(NC(=O)c2cccc(F)c2)c1
Second: O=C(Nc1cccc(NC(=O)c2ccc(Br)o2)n1)c1ccc(Br)o1
The “hERG current change (%, negative = inhibition) at 10uM” value of the first is higher: 16.3% for the first, -3.36% for the second.

Going from Cc1cc(C)nc(-n2ncc3c2CC(c2ccccc2)CC3=O)n1 (stereo not shown) to COc1ccc(C2CC(c3ccccc3)Nc3nc(NC(=O)c4cccs4)nn32)cc1 (stereo not shown), the “hERG current change (%, negative = inhibition) at 10uM” value falls from -5.73% to -52%.

Compared with Cc1[nH][nH]c(=O)c1/C=N/N1CCOCC1, Cc1cccc(-n2c(O)c(C=NCCCN3CCOCC3)c3ccccc3c2=O)c1 is lower in “hERG current change (%, negative = inhibition) at 10uM” value: 14.8% for the first, -23.7% for the second.

Going from O=C(CCCN1C(=O)/C(=C/c2ccco2)SC1=S)Nc1ccccc1C(=O)O to CC1(C)CC(=O)c2c(oc3ccc(NS(=O)(=O)c4ccc(C(=O)O)cc4)cc23)C1, the “hERG current change (%, negative = inhibition) at 10uM” value rises from 5.4% to 32.5%.

Compared with O=C(O)CSc1cnc2ccccc2n1, C=CCn1c(SCC(=O)O)nc2sc(CC)cc2c1=O is higher in “hERG current change (%, negative = inhibition) at 10uM” value: -1.24% for the first, 13.8% for the second.

First: Cn1c(C(=O)N2CCN(c3cccc(C(F)(F)F)c3)CC2)cc2sccc21
Second: Cc1cccc(N2CC(O)(c3cccs3)[N+]3=C2CCCC3)c1C.[Br-] (stereo not shown)
The “hERG current change (%, negative = inhibition) at 10uM” value of the first is higher: -7.97% for the first, -43.5% for the second.

Going from O=C1OC2CC3CC1CC(O)(C3)C2 (stereo not shown) to O=c1ccc(-c2ccc(S(=O)(=O)NCC3CCN(Cc4cccc(F)c4)CC3)s2)n[nH]1, the “hERG current change (%, negative = inhibition) at 10uM” value falls from -2.69% to -8.55%.

Compared with O=C(COC(=O)c1cnccn1)c1ccc([N+](=O)[O-])cc1, O=C(Nc1ccc(S(=O)(=O)Nc2nccs2)cc1)c1cc(-c2ccccc2)nc2ccccc12 is higher in “hERG current change (%, negative = inhibition) at 10uM” value: 2.35% for the first, 6.03% for the second.

Going from Cc1ccc(N(Cc2cc3ccc(C)cc3[nH]c2=O)S(=O)(=O)c2ccccc2)c(C)c1 to CC1(c2ccccc2)CC(C)(C)N2C(=O)C3(C(C#N)=C(N)Oc4cc(O)ccc43)c3cccc1c32 (stereo not shown), the “hERG current change (%, negative = inhibition) at 10uM” value falls from 28.2% to 22.7%.

First: Cc1ccc(Sc2ncnc3onc(C)c23)cc1
Second: Cc1cc[n+](-c2[nH]c(=O)sc2/C=N/N=C(\[O-])c2ccccc2)cc1
The “hERG current change (%, negative = inhibition) at 10uM” value of the first is higher: 4.79% for the first, -9.02% for the second.

Going from N#CCSCC(=O)Nc1ccc(Br)cc1 to CCN(CC)c1ccc(N/C(N)=N/c2nc(C(F)(F)F)cc(=O)[nH]2)cc1, the “hERG current change (%, negative = inhibition) at 10uM” value rises from 16.5% to 24.6%.
